# Test results reported in PubChem BioAssay AID504339 (National Center for Advancing Translational Sciences (NCATS), 2011).
# Where “and” joins values, the source holds several entries; their conditions need not be identical. Equal values may be shown once. Out of some 390,000 compounds screened, about 17,000 (4.4%) were called active. This list was built around the results that the source calls inconclusive (neither active nor inactive); the mix of calls is not that of the screen. The call rests on the fitted dose curve; in most records, active means well fitted inhibition curve with a large enough effect; inconclusive means small, poorly fitted or top-dose-only effect; inactive means no such curve, though single readings can be large or run the other way. Where the call is inconclusive, the potency comes from a doubtful curve fit.
# Target: Lysine-specific demethylase 4A (Homo sapiens) (UniProt O75164)
# Chain of UniProt O75164 (O75164 whole entry, looked up, the tested form may be a part): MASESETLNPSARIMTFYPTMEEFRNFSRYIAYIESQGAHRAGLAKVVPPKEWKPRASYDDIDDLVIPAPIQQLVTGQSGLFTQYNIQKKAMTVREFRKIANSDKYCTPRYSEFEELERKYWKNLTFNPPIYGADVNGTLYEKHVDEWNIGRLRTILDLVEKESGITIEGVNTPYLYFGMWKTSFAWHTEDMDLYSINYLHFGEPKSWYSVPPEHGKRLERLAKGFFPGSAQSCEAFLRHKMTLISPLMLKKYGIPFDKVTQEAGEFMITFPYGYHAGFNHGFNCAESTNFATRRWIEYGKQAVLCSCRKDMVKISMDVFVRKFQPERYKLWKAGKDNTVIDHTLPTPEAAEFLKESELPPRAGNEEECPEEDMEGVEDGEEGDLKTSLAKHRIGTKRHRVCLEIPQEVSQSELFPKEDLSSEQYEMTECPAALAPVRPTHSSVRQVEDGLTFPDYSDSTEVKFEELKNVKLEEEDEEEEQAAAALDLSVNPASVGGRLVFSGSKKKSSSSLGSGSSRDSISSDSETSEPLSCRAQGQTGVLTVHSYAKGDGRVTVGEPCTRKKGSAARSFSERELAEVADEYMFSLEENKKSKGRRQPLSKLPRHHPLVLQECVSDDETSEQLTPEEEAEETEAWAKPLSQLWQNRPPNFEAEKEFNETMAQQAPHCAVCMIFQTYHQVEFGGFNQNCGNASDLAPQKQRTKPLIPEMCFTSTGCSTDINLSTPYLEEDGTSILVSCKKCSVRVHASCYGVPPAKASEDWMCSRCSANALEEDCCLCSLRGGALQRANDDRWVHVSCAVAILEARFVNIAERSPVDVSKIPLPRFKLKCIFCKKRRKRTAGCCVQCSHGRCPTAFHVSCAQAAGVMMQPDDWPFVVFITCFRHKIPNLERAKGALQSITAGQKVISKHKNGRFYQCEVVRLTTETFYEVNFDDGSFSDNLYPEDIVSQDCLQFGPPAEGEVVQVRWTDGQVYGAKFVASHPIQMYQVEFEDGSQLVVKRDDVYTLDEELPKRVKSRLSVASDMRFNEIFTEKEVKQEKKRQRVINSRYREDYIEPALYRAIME
# Assay: qHTS Assay for Inhibitors of JMJD2A-Tudor Domain; further: nearly all actives have a fitted effect of over 50% in size
# Conditions: AlphaScreen JMJD2A-Tudor / H3K4me3 peptide binding; activity change, negative = inhibition: at 114 µM (top of the series)
# On the % scale 0 is the no-effect control and ±100 the full control effect; potency means the concentration at half of the fitted maximal effect; tags describe the fitted curve by direction and shape.
SMILES,Potency,"activity change, negative = inhibition"
CC(C)(C)c1ccc(-c2nc(C#N)c(NCc3ccncc3)o2)cc1,active: 79.4 µM,
COc1ccc(CC2=C(O)c3ccccc3C(=O)C2=O)cc1,inactive,
Cc1snc(S(=O)(=O)/C(C#N)=N\Nc2ccccc2)c1C#N,"inconclusive: 79.4 µM [inhibitor, single point]",
NS(=O)(=O)c1cccc(NC(=O)COC(=O)Cc2ccc(S(=O)(=O)N3CCOCC3)s2)c1,inactive,
O=S(=O)(CCN1CCCCC1)CCS(=O)(=O)CCN1CCCCC1,inactive,
C=CCn1c(-c2sc(-c3ccccc3)nc2C)n[nH]c1=S,"inconclusive: 63.1 µM [inhibitor, partial curve, poor fit]",
CC1CCCN(S(=O)(=O)c2cc(C(=O)NCc3ccco3)ccc2Cl)C1 (stereo unspecified),"inconclusive: 56.2 µM [inhibitor, partial curve]",
Cc1cc(C)nc(SCCc2ccncc2)n1,active: 4.47 µM,
CCN(c1ccccc1)S(=O)(=O)c1ccc(C(=O)Nc2nnc(COC)o2)cc1,active: 56.2 µM,
O=C(c1ccccc1SCc1ccccc1)N1CCCCCC1,inactive,
Cc1ccc(-n2c(C)cc(/C=N/NC(=O)c3ccc(CN4CCOCC4)cc3)c2C)cc1,"inconclusive: 39.8 µM [inhibitor, partial curve]",
COc1ccc(NC(C)=O)cc1NC(=O)CSc1nnc(-c2ccccn2)n1C,"inconclusive: 89.1 µM [inhibitor, partial curve]",
O=C(NNc1ccc(Cl)cc1)c1sccc1Cl,"inconclusive: 39.8 µM [inhibitor, partial curve]",
COc1ccc(/C=N/Nc2ncnc3scc(-c4ccccc4)c23)cc1OC,"inconclusive: 17.8 µM [inhibitor, partial curve, poor fit]",
O=[N+]([O-])c1ccc(Sc2n[nH]c(-c3ccccc3)n2)nc1,active: 56.2 µM,
COC(=O)Nc1ccc(S(=O)(=O)N2CCC(C(=O)N3CCC(C)CC3)CC2)cc1,active: 11.2 µM,
Cc1cc(-c2csc(N)n2)c(C)n1Cc1ccco1,"inconclusive: 89.1 µM [inhibitor, partial curve]",
COc1cccc(C2c3c(ncn(-c4ccccc4C#N)c3=N)Oc3ccc4ccccc4c32)c1 (stereo unspecified),active: 56.2 µM,
COc1ccc(C(=O)C2C(=O)C(=O)N(Cc3ccco3)C2c2cccs2)cc1 (stereo unspecified),inactive,
CN(C)[C@@H]1CCC[C@@H]1OC(=O)C(c1ccccc1)c1ccccc1,active: 1.12 µM,
CC1CN(C(=O)c2cc3cc([N+](=O)[O-])ccc3s2)CC(C)O1 (stereo unspecified),inactive,
CCCCOCC1CC(CC#CCN2CCCCC2)C(=O)O1 (stereo unspecified),"inconclusive: 0.708 µM [inhibitor, full curve, poor fit]",
CC1(C)CC(C)(c2ccc(O)cc2O)N(c2cccc(Cl)c2)C(=S)N1 (stereo unspecified),"inconclusive: 50.1 µM [inhibitor, partial curve]",
COC(=O)c1ccc(Cl)cc1NC(=O)N(Cc1ccc(C)o1)C1CCN(C(C)=O)CC1,inactive,

SMILES,Potency,"activity change, negative = inhibition"
CN(C)C1CCN(Cc2cc(COCc3ccccc3)c3cccnc3c2O)C1 (stereo unspecified),active: 31.6 µM,
CN1CCN(c2ccc(NC(=O)c3ccc(Oc4ccccc4)cc3)cc2)CC1,"inconclusive: 50.1 µM [inhibitor, partial curve]",
CCc1ccc(NCc2cccn2-c2nnc(N3CCCCCC3)s2)cc1,"inconclusive: 0.631 µM [inhibitor, full curve, poor fit]",
O=C1/C(=C/c2ccco2)SC(=S)N1c1cccnc1,active: 8.91 µM,
CCc1ccc(-c2[nH]nc3nc(-c4ccc(OC)cc4)cc(C(=O)NCCc4ccc(OC)c(OC)c4)c23)cc1,inactive,
Nc1c(-c2nc(-c3ccncc3)no2)nnn1CC(=O)Nc1ccccc1,inactive,
Cc1cccc(NC(=S)NCc2cccn2C)c1,"inconclusive: 79.4 µM [inhibitor, partial curve]",
Nc1nc(CN2CCN(c3ccccc3)CC2)nc(N2CCCc3ccccc32)n1,active: 50.1 µM,
COC(=O)/C(=N\Nc1ccc(Cl)cc1)Sc1nnc(-c2ccc(OC)cc2)n1C,"inconclusive: 39.8 µM [inhibitor, partial curve]",
CCCCN1C(=O)C(=O)N(CC(=O)NC2CCCc3ccccc32)C1=O (stereo unspecified),active: 5.01 µM,
Cc1ccccc1Oc1ccc2c(c1)[C@@H]1C[C@H](N(C)C(=O)Nc3cc(Cl)cc(Cl)c3)[C@H]([C@H](C)O)C(=O)N1CC2,"inconclusive: 89.1 µM [inhibitor, single point]",
COc1cccc(-n2nc(C(=O)N3CCN(Cc4ccccc4)CC3)c3ccccc3c2=O)c1,"inconclusive: 22.4 µM [inhibitor, single point]",
CC(=O)NS(=O)(=O)c1ccc(NC(=S)NC(=O)C2CCC2)cc1,inactive,
C=CCN1C(=O)/C(=C2/Sc3ccccc3N2C)SC1=Nc1ccccc1C,"inconclusive: 56.2 µM [inhibitor, partial curve, poor fit]",
O=C(CSc1nc2ccc(S(=O)(=O)N3CCOCC3)cc2[nH]1)N1CCOCC1,active: 79.4 µM,
COc1ccc2[nH]c3c(c2c1)CCN1C(=O)C(CC(=O)NCc2ccco2)C[C@H](C(=O)N2CCCCC2)[C@@]31CCc1ccccc1 (stereo partly specified),"inconclusive: 39.8 µM [inhibitor, full curve]",
C[C@@H]1OC(Nc2ccc(N=Nc3ccccc3)cc2)[C@H](O)[C@H](O)[C@H]1O (stereo partly specified),"inconclusive: 25.1 µM [inhibitor, full curve]",
O=c1c2ccccc2c(C=NCCCN2CCOCC2)c(O)n1Cc1ccc2c(c1)OCO2,"inconclusive: 50.1 µM [inhibitor, partial curve]",
CCOc1ccc(NC(=O)c2c(NCc3ccc(C)o3)sc3c2CCC(C)C3)cc1 (stereo unspecified),"inconclusive: 44.7 µM [inhibitor, partial curve]",
Cc1ccc(S(=O)(=O)c2nc(S(C)(=O)=O)sc2N2CCC(C(N)=O)CC2)cc1,inactive,
CCn1c(=O)cc(SCC(=O)NCCc2cc(OC)ccc2OC)c2ccccc21,inactive,
COc1cccc(NC(=O)CSc2nc3ccccc3n2C)c1,"inactive and inconclusive: 39.8 µM [inhibitor, partial curve]",
CCOC(=O)C1(C)/C(=N/Nc2ccccc2Cl)C(=O)C(=O)N1c1ccccc1 (stereo unspecified),active: 39.8 µM,
Cc1nnc(SCC2=C(C(=O)O)N3C(=O)C(NC(=O)Cn4nc(C(F)F)cc4C)C3SC2)s1 (stereo unspecified),active: 25.1 µM,

SMILES,Potency,"activity change, negative = inhibition"
O=C(CSc1nnc(-c2cc3ccccc3cc2O)n1Cc1ccco1)c1ccc(F)cc1,"inconclusive: 20 µM [inhibitor, full curve]",
CS(=O)(=O)NCCOc1ccc(S(=O)(=O)NCCOc2ccccc2)cc1,,inactive: -14.3% [at 11.4 µM]
COc1ccc(OC)c(NC(=O)CN(C)S(=O)(=O)c2ccc3[nH]c4c(c3c2)CCCC4)c1,"inconclusive: 22.4 µM [inhibitor, full curve]",
COc1ccc(N2C(=O)CC(Sc3n[nH]c(-c4ccccc4)n3)C2=O)cc1 (stereo unspecified),active: 5.01 µM,
COc1ccc(Br)cc1S(=O)(=O)N1CCCC1,"inconclusive: 3.16 µM [inhibitor, single point]",
COc1ccc(CN2C(=O)c3cccnc3C2=O)cc1S(=O)(=O)N(C)c1cccc(C)c1,"inconclusive: 56.2 µM [inhibitor, partial curve]",
O=C1N=c2ccccc2=C1c1sc(=S)n(Cc2ccccc2Cl)c1O,"inconclusive: 5.62 µM [inhibitor, full curve]",
CCOc1ccc(NCc2cccn2-c2nnc(N3CCC(C(=O)NCCCN4CCCCC4)CC3)s2)cc1,active: 50.1 µM,
COc1ccc(C(=O)NCCc2sc(-c3ccc(Cl)cc3)nc2C)c(OC)c1,"inconclusive: 56.2 µM [inhibitor, partial curve]",
CCOC(=O)c1c(S(=O)(=O)Nc2ccc(C)cn2)c(C)n(C)c1C,"inconclusive: 22.4 µM [inhibitor, partial curve]",
Cc1ccc(C)c(CN2C(=O)c3ccccc3S(=O)(=O)c3ccc(C(=O)N4CCN(c5ccccn5)CC4)cc32)c1,inactive,
Cn1cnc2cc(NCc3cccs3)ccc21,inactive,
COc1cc(OC)c(OC)cc1/C=C1\CCC(C2CCCC2)C1=O (stereo unspecified),"inconclusive: 44.7 µM [inhibitor, partial curve]",
Cc1cccc(C(=O)NCCc2n[nH]c(=S)n2C)c1,"inconclusive: 31.6 µM [inhibitor, partial curve]",
Cn1ccnc1C(=O)c1cc(=O)c2ccccc2o1,"inconclusive: 89.1 µM [inhibitor, partial curve]",
COc1cccc(CN2CCN(Cc3cccc(Oc4ccccc4)c3)CC2)c1OC,active: 7.08 µM,
CN(C)c1ccc(-c2c(C3C4C=CCCC4(C)C(=O)N3Cc3ccccc3)ccc3ccccc23)cc1 (stereo unspecified),"inconclusive: 15.8 µM [inhibitor, full curve, poor fit]",
O=C(NCCOCc1ccc(Cl)cc1)c1ncn[nH]1,"inconclusive: 31.6 µM [inhibitor, partial curve]",
COc1ccc(NC(=O)c2ccc(N3CCOCC3)nc2)cc1,inactive,
N#Cc1nc(Cc2ccccc2)oc1NCc1ccccc1Cl,"inconclusive: 56.2 µM [inhibitor, partial curve]",
CCOC(=O)C1=C(C)NC(C)=C(C(=O)OCC)C1c1cc2ccc(C)cc2[nH]c1=O,inactive,
CCCC(=O)Nc1cc(C)c(NC(=O)c2ccccn2)cn1,"inconclusive: 89.1 µM [inhibitor, single point]",
O=C(COC(=O)CCN1C(=O)/C(=C\C=C\c2ccccc2)SC1=S)Nc1ccc(Br)cc1,"inconclusive: 56.2 µM [inhibitor, partial curve]",
